# PubChem BioAssay (Tox21)
# Inconclusive means that the source gave no clear call. Such entries were picked first, then a sample of the others. For some assays here: Potencies of inconclusive entries are doubtful fits and often do not repeat. Active and inactive are the calls of the source. Unless noted, the call rests on the fitted dose curve; in most records, active means well fitted curve in the direction sought with a large enough effect in the repeat runs; inconclusive means weak or mixed curves; inactive means no such curve, though single readings can be large; an effect the other way counts as inactive or inconclusive.
# Legend:
# [1] = qHTS assay to identify small molecule that activate the aryl hydrocarbon receptor (AhR) signaling pathway - cell viability counter screen (AID 743086); further: nearly all actives have a fitted effect of over 45% in size; further: potency means the concentration at half of the fitted maximal effect;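 on viability change, negative = cytotoxic: HepG2 liver cells carrying the AhR DRE luciferase reporter; on the % scale 0 is the no-effect control and ±100 the full control effect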
# Method in brief: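 HepG2-AhR-luc (HG2L7.5c1) cells, 4000/well, were preincubated 5 h at 37C, exposed to compound in qHTS format for 24 hr at 37C, then given CellTiter-Fluor for 30 min; viability was read as fluorescence in the reporter wells.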
# [2] = biological target: Peroxisome proliferator-activated receptor gamma (Homo sapiens) (UniProt P37231); assay: qHTS assay to identify small molecule agonists of the peroxisome proliferator-activated receptor gamma (PPARg) signaling pathway (AID 743094; active means well fitted activation curve with a large enough effect in the signal ratio in the repeat runs, not every such curve was filed as active; inconclusive means weak or mixed curves, or effect the other way; inactive means no such curve, though single readings can be large or run the other way; the % refers to the signal ratio; further: potency means the concentration at half of the fitted maximal effect); conditions: HEK293H PPARg-UAS-bla, beta-lactamase FRET ratio, 17 h; activation: at 57 µM (top of the series) unless noted
# Method in brief: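 Agonist activity was taken from a beta-lactamase reporter (FRET substrate, 1 h at room temperature) in HEK293H cells carrying a PPARg UAS-bla construct. Compounds in DMSO were incubated 17 h at 37C after a 5 h cell pre-incubation.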
# [3] = biological target: Peroxisome proliferator-activated receptor gamma (Homo sapiens) (UniProt P37231); assay: qHTS assay to identify small molecule antagonists of the peroxisome proliferator-activated receptor gamma (PPARg) signaling pathway (AID 743191; calls by dose curve; further: nearly all actives have a fitted effect of over 30% in size; further: potency means the concentration at half of the fitted maximal effect; on ratio activity, negative = inhibition: on the % scale 0 is the no-effect control and ±100 the full control effect); conditions: HEK293H PPARg-UAS-bla, beta-lactamase ratio, antagonist, 17 h; ratio activity, negative = inhibition: at 62.6 µM (top of the series) unless noted
# Method in brief: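 GeneBLAzer PPARg UAS-bla HEK293H cells carrying a UAS-driven beta-lactamase reporter were plated at 3000 cells/well, preincubated 5 h at 37C, then given compound for 17 h at 37C; LiveBLAzer B/G FRET substrate was read after 1 h at room temperature.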
# [4] = qHTS assay for small molecule agonists of the antioxidant response element (ARE) signaling pathway - cell viability counter screen (AID 743203; calls by dose curve; further: potency means the concentration at half of the fitted maximal effect; nearly all actives have a fitted effect of over 55% in size); conditions: ARE-bla HepG2 viability, CellTiter-Glo luminescence, 16 h; viability change, negative = cytotoxic: at 73.3 µM (top of the series)
# Method in brief: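 Viability counter screen: CellTiter-Glo luminescence, read after 30 min at room temperature, in ARE-bla HepG2 wells. Compound exposure lasted 16 h at 37C/5% CO2, following a 5 h pre-incubation of the cells after plating.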
# [5] = qHTS assay for small molecule activators of the heat shock response signaling pathway (AID 743210; active means well fitted activation curve with a large enough effect in the signal ratio in the repeat runs, with a control signal flat, not every such curve was filed as active; inconclusive means weak or mixed curves; the % refers to the signal ratio; further: potency means the concentration at half of the fitted maximal effect; on activation: on the % scale 0 is the no-effect control and ±100 the full control effect); conditions: HeLa HSE-bla reporter, beta-lactamase ratio, 5 h; activation: at 62.6 µM (top of the series) unless noted
# Method in brief: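 Heat shock element–beta-lactamase HeLa reporter cells; qHTS with compounds for 5 h at 37 C; detection by FRET substrate fluorescence after 2.5 h at RT.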
# [6] = qHTS assay to identify small molecule agonists of the peroxisome proliferator-activated receptor delta (PPARd) signaling pathway - cell viability counter screen (AID 743211); conditions: PPARd-bla HEK293H viability, CellTiter-Glo luminescence, 17 h; activity change, negative = cytotoxicity: at 62.6 µM (top of the series) unless noted; further: on the % scale 0 is the no-effect control and ±100 the full control effect; nearly all actives have a fitted effect of over 55% in size
# Method in brief: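 Read-out: CellTiter-Glo luminescence, 30 min RT, measured in the same wells as the beta-lactamase reporter. Cells: GeneBLAzer PPAR delta UAS-bla HEK293H, 3000 cells/well, compound exposure 17 h at 37C.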
# [7] = qHTS assay to identify small molecule antagonists of the peroxisome proliferator-activated receptor delta (PPARd) signaling pathway - cell viability counter screen (AID 743213); conditions: PPARd-bla HEK293H viability, CellTiter-Glo luminescence, 17 h; viability change, negative = cytotoxic: at 62 µM (top of the series) unless noted; further: nearly all actives have a fitted effect of over 50% in size; further: potency means the concentration at half of the fitted maximal effect; on viability change, negative = cytotoxic: on the % scale 0 is the no-effect control and ±100 the full control effect
# Method in brief: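 Same-well viability: cells pre-incubated 5 h, dosed with compound plus 300 nM L165041, kept 17 h at 37 C, FRET substrate 2 h RT, then CellTiter-Glo 30 min RT and luminescence.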
# [8] = biological target: Peroxisome proliferator-activated receptor delta (Homo sapiens) (UniProt Q03181); assay: qHTS assay to identify small molecule antagonists of the peroxisome proliferator-activated receptor delta (PPARd) signaling pathway (AID 743215; active means well fitted inhibition curve with a large enough effect in the signal ratio in the repeat runs, not every such curve was filed as active; inconclusive means weak or mixed curves, or effect the other way; inactive means no such curve, though single readings can be large or run the other way; the % refers to the signal ratio;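 further: cells stimulated with agonist L165041 at 300 nM final during compound exposure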; further: potency means the concentration at half of the fitted maximal effect); conditions: HEK293H PPARd-UAS-bla, beta-lactamase FRET ratio, antagonist, 17 h; ratio activity, negative = inhibition: at 62 µM (top of the series) unless noted
# Method in brief: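 Agonist L165041 (300 nM final) added with compound to PPARd-bla HEK293H UAS-bla reporter cells; 17 h incubation at 37 C. Read-out: LiveBLAzer FRET substrate, 2 h at room temperature, fluorescence intensity.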
# [9] = qHTS assay to identify small molecule agonists of the farnesoid-X-receptor (FXR) signaling pathway - cell viability counter screen (AID 743218); conditions: FXR-bla HEK293T viability, CellTiter-Glo luminescence, 16 h; viability change, negative = cytotoxic: at 62.6 µM (top of the series) unless noted; further: potency means the concentration at half of the fitted maximal effect; nearly all actives have a fitted effect of over 45% in size
# Method in brief: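 Viability counter screen in the same wells: CellTiter-Glo luminescence, 30 min room-temperature incubation, measured after the beta-lactamase read. Cells were GeneBLAzer FXR-UAS-bla HEK 293T, compound-treated 16 h at 37C.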
# [10] = biological target: Bile acid receptor (Homo sapiens) (UniProt Q96RI1); assay: qHTS assay to identify small molecule agonists of the farnesoid-X-receptor (FXR) signaling pathway (AID 743220; active means well fitted activation curve with a large enough effect in the signal ratio in the repeat runs, not every such curve was filed as active; inconclusive means weak or mixed curves, or effect the other way; the % refers to the signal ratio; further: potency means the concentration at half of the fitted maximal effect); conditions: HEK293T FXR-UAS-bla, beta-lactamase FRET ratio, 16 h; activation: at 62.6 µM (top of the series) unless noted
# Method in brief: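 FXR-UAS-bla HEK 293T cells carrying a UAS-driven beta-lactamase reporter were plated for 5 h at 37C/5% CO2, then exposed to DMSO-dissolved Tox21 10K compounds for 16 h at 37C. A LiveBLAzer B/G FRET substrate was loaded for 2 h at room temperature before fluorescence reading.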
# [11] = qHTS assay to identify small molecule antagonists of the farnesoid-X-receptor (FXR) signaling pathway - cell viability counter screen (AID 743221; active means well fitted cell-killing curve with a large enough effect in the repeat runs, not every such curve was filed as active; inconclusive means weak or mixed curves, or effect the other way; inactive means no such curve, though single readings can be large or run the other way; further: potency means the concentration at half of the fitted maximal effect; nearly all actives have a fitted effect of over 50% in size); conditions: FXR-bla HEK293T viability, CellTiter-Glo luminescence, 16 h; activity change, negative = cytotoxicity: at 62.6 µM (top of the series) unless noted
# Method in brief: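 HEK 293T FXR-bla cells, 5 h pre-incubation; compound + CDCA 50 uM final, 16 h, 37 C; beta-lactamase FRET read first, then CellTiter-Glo luminescence, 30 min RT.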
# [12] = qHTS assay for small molecule agonists of the antioxidant response element (ARE) signaling pathway (AID 743202; active means well fitted activation curve with a large enough effect in the signal ratio in the repeat runs, not every such curve was filed as active; inconclusive means weak or mixed curves, or effect the other way; inactive means no such curve, though single readings can be large or run the other way; the % refers to the signal ratio; further: potency means the concentration at half of the fitted maximal effect); conditions: HepG2 ARE-bla reporter, beta-lactamase FRET, 16 h; activation: at 73.3 µM (top of the series) unless noted
# Method in brief: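 Following a 16 h, 37 C exposure of reporter HepG2 cells (ARE-driven beta-lactamase, 2,000 cells/well) to compounds, FRET substrate was applied for 2 h at room temperature and fluorescence intensity recorded.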
# [13] = biological target: Peroxisome proliferator-activated receptor delta (Homo sapiens) (UniProt Q03181); assay: qHTS assay to identify small molecule agonists of the peroxisome proliferator-activated receptor delta (PPARd) signaling pathway (AID 743212; calls by dose curve; further: potency means the concentration at half of the fitted maximal effect); conditions: HEK293H PPARd-UAS-bla, beta-lactamase FRET ratio, 17 h; activation: at 62.6 µM (top of the series) unless noted
# Method in brief: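 Beta-lactamase reporter read by fluorescence (LiveBLAzer B/G FRET, 2 h, room temperature). Test agents, in DMSO, incubated at 37 C with PPARd-bla HEK293H cells.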
# [14] = biological target: Bile acid receptor (Homo sapiens) (UniProt Q96RI1); assay: qHTS assay to identify small molecule antagonists of the farnesoid-X-receptor (FXR) signaling pathway (AID 743217; active means well fitted inhibition curve with a large enough effect in the signal ratio in the repeat runs, not every such curve was filed as active; inconclusive means weak or mixed curves, or effect the other way; inactive means no such curve, though single readings can be large or run the other way; the % refers to the signal ratio; further: potency means the concentration at half of the fitted maximal effect); conditions: HEK293T FXR-UAS-bla, beta-lactamase ratio, CDCA-stimulated, 16 h; activity change, negative = inhibition: at 62.6 µM (top of the series) unless noted
# Method in brief: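 Antagonist mode: chenodeoxycholic acid at 50 uM final stimulates a UAS-driven beta-lactamase reporter in HEK 293T FXR-bla cells during 16 h, 37C compound exposure. Read-out is FRET substrate fluorescence after 2 h at room temperature.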
# [15] = qHTS assay to identify small molecule antagonists of the peroxisome proliferator-activated receptor gamma (PPARg) signaling pathway - cell viability counter screen (AID 743194); conditions: PPARg-bla HEK293H viability, CellTiter-Glo luminescence, 17 h, co-treated with 50 nM rosiglitazone; activity change, negative = cytotoxicity: at 62.6 µM (top of the series) unless noted; further: potency means the concentration at half of the fitted maximal effect; nearly all actives have a fitted effect of over 55% in size
# Method in brief: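 PPARg-UAS-bla HEK293H cells were plated, rested 5 h at 37 C, then treated with compounds plus rosiglitazone (50 nM final) for 17 h at 37 C; viability was then read by CellTiter-Glo luminescence after 30 min at room temperature.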
# [16] = biological target: Vitamin D3 receptor (Homo sapiens) (UniProt P11473); assay: qHTS assay to identify small molecule agonists of the vitamin D receptor (VDR) signaling pathway (AID 743222; calls by dose curve; further: potency means the concentration at half of the fitted maximal effect); conditions: HEK293T VDR-UAS-bla, beta-lactamase FRET ratio, 16 h; activation: at 63.5 µM (top of the series) unless noted
# Method in brief: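 Agonist mode, beta-lactamase reporter: fluorescence from LiveBLAzer B/G FRET substrate (2 h, room temperature) read after 16 h compound treatment at 37 C of VDR-bla cells, which were pre-incubated 4 h after seeding.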
# [17] = biological target: Vitamin D3 receptor (Homo sapiens) (UniProt P11473); assay: qHTS assay to identify small molecule antagonists of the vitamin D receptor (VDR) signaling pathway (AID 743223; active means well fitted inhibition curve with a large enough effect in the signal ratio in the repeat runs, not every such curve was filed as active; inconclusive means weak or mixed curves, or effect the other way; inactive means no such curve, though single readings can be large or run the other way; the % refers to the signal ratio; further: potency means the concentration at half of the fitted maximal effect); conditions: VDR-UAS-bla HEK293T, beta-lactamase FRET ratio, 16 h; activity change, negative = inhibition: at 61 µM (top of the series) unless noted
# Method in brief: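 Beta-lactamase reporter read-out: FRET substrate fluorescence after 2 h at room temperature, following 16 h exposure of VDR-bla cells to test compound plus 3 nM (final) 1alpha,25-dihydroxyvitamin D3 agonist at 37C.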
# [18] = qHTS assay to identify small molecule agonists of the vitamin D receptor (VDR) signaling pathway - cell viability counter screen (AID 743224); conditions: VDR-bla HEK293T viability, CellTiter-Glo luminescence, 16 h; activity change, negative = cytotoxicity: at 62.6 µM (top of the series); further: potency means the concentration at half of the fitted maximal effect; nearly all actives have a fitted effect of over 50% in size
# Method in brief: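 Counter screen run in the same wells as the VDR-bla reporter assay: CellTiter-Glo luminescence, 30 min at room temperature, after 16 h compound treatment at 37C of cells pre-plated for 4 h.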
# Tags describe the fitted curve by direction and shape or compound fluorescence and quenching.
# Chain of UniProt Q96RI1 (Q96RI1 whole entry, looked up): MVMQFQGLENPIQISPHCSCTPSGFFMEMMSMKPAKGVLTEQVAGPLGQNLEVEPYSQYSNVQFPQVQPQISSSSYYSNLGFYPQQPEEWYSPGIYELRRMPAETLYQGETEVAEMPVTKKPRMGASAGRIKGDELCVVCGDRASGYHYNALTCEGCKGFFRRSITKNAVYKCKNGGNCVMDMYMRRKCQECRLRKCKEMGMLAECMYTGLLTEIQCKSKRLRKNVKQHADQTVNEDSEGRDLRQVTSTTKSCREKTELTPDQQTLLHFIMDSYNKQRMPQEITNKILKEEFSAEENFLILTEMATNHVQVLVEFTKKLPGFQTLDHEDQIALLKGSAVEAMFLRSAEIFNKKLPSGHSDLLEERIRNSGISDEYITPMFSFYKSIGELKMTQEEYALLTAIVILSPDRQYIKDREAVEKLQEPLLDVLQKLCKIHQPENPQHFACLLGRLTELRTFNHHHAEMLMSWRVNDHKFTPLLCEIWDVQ
# Chain of UniProt Q03181 (Q03181 whole entry, looked up): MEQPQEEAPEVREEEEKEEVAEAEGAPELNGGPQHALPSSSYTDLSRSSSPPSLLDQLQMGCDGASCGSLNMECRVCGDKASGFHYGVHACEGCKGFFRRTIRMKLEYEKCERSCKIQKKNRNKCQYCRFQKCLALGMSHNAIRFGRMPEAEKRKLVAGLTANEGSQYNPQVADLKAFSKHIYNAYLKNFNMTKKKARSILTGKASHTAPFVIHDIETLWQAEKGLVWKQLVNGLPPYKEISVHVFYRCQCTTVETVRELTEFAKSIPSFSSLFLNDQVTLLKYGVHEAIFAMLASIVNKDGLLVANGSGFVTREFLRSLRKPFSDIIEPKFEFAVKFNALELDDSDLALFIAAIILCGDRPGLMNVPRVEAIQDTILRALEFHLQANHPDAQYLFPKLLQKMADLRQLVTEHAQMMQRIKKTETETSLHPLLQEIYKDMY
# Chain of UniProt P37231 (P37231 whole entry, looked up): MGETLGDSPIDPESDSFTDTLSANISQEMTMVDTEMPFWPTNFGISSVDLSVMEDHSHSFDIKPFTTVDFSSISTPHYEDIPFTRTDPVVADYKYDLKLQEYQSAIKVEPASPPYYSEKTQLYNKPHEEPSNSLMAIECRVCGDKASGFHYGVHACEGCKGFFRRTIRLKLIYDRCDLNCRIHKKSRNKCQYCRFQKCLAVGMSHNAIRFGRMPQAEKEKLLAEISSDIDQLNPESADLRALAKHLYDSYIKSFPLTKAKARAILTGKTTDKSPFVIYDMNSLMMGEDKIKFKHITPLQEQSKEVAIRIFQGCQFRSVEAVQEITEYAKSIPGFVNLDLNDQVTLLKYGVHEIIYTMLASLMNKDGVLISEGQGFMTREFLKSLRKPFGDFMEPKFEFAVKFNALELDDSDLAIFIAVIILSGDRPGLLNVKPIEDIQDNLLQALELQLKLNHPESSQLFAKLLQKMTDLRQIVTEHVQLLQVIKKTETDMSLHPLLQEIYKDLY
# Chain of UniProt P11473 (P11473 whole entry, looked up): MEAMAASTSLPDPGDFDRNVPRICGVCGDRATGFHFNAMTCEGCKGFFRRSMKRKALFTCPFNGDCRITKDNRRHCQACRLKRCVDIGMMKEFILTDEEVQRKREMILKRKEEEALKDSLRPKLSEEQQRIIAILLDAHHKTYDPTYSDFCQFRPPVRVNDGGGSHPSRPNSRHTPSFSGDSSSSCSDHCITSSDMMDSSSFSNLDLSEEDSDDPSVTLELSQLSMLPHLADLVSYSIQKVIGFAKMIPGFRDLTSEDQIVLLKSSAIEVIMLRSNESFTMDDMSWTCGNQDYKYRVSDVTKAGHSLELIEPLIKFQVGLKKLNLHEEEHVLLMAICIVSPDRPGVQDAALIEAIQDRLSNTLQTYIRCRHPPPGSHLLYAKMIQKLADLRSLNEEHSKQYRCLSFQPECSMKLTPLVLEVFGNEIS
compound,measurement,setting,value
O=C1c2cccc(O)c2C(=O)c2c(O)cccc21,Potency,[1],inactive
same,Potency,[2],"inconclusive: 11.1 µM [activator, full curve, poor fit]"
same,Potency,[3],"inconclusive: 49.5 µM [activator, partial curve, poor fit] and inactive"
same,Potency,[4],inconclusive: 61.8 µM [cytotoxic]
same,Potency,[5],inactive
same,Potency,[6],inactive
same,Potency,[7],"inconclusive: 33.5 µM [cytotoxic, partial curve, poor fit]"
same,"viability change, negative = cytotoxic",[7],inconclusive: -18% [cytotoxic] [at 80.4 µM]
same,"ratio activity, negative = inhibition",[8],inconclusive: -2.85% [at 80.4 µM]
same,Potency,[9],"inconclusive: 7.5 µM [cytotoxic, partial curve, poor fit]"
same,Potency,[10],"inconclusive: 3.93 µM [rising, full curve, poor fit]"
same,activation,[10],inconclusive: 4.82%
same,Potency,[11],"inconclusive: 17.6 µM [falling, partial curve, poor fit]"
NC1[C@H]2CN(c3nc4c(cc3F)c(=O)c(C(=O)O)cn4-c3ccc(F)cc3F)C[C@@H]12 (stereo not given in full),Potency,[1],"inconclusive: 21.1 µM [falling, partial curve, poor fit]"
same,Potency,[2],active: 23.9 µM
same,Potency,[3],"inconclusive: 26.6 µM [activator, partial curve]"
same,Potency,[12],active: 8.41 µM
same,Potency,[13],active: 29.8 µM
same,"activity change, negative = inhibition",[14],inconclusive: 36.9%
same,activation,[10],inconclusive: 8.29%
CCN(CC)CCOc1ccc(C(O)(Cc2ccc(Cl)cc2)c2ccc(C)cc2)cc1 (stereo not given),Potency,[1],active: 29.8 µM
same,activation,[2],inconclusive: -10.5%
same,Potency,[3],"inconclusive: 33.5 µM [cytotoxic, partial curve, poor fit]"
same,Potency,[15],active: 29.8 µM
same,Potency,[12],"inconclusive: 33.5 µM [falling, single point]"
same,Potency,[5],"inconclusive: 29.8 µM [falling, single point]"
same,Potency,[13],"inconclusive: 8.41 µM [rising, partial curve]"
same,Potency,[7],active: 13.3 µM
same,Potency,[8],active: 29.8 µM
same,Potency,[14],inconclusive: 29.8 µM
same,Potency,[9],active: 13.3 µM
same,Potency,[11],active: 29.8 µM
same,Potency,[16],inconclusive: 33.5 µM
same,Potency,[17],inconclusive: 26.8 µM
same,Potency,[18],inconclusive: 29.8 µM [cytotoxic]
